Like-named read-outs stand apart in the source and are kept apart here. These are yes or no findings as the source states them, for the method shown. For some assays here: Binding seen in cells or lysates may run through a third protein. Some results given as binding are weak or reduced against the parent protein; the word gives no strength. Sequences can lack the tags named with a protein.
T1: OsbZIP47ΔC (C-terminal truncated OsbZIP47 lacking 186-385 amino acids), Gal4 BD fusion (rice (Oryza sativa)) (UniProt Q5Z6N9)
T1 sequence: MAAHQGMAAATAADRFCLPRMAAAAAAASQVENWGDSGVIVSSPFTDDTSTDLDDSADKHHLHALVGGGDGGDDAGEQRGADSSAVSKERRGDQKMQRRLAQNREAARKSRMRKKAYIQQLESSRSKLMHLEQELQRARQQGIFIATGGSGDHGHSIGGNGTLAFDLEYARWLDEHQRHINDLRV

By UniProt entry, the sequences of proteins in these tests, tags left out.
UniProt Q6Q9I2: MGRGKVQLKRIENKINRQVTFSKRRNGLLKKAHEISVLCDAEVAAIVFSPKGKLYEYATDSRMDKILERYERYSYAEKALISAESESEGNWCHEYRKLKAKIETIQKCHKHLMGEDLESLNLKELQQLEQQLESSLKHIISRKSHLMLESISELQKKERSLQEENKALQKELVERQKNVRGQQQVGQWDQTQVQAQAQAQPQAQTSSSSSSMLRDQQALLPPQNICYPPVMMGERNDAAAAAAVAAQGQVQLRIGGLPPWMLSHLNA
UniProt Q10PZ9: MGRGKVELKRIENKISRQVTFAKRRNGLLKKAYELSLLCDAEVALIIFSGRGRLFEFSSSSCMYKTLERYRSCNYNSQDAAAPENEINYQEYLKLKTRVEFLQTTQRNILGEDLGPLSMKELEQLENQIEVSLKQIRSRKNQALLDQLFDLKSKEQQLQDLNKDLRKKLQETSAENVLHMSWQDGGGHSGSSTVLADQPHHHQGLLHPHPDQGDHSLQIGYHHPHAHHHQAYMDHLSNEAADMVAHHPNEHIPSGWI

T2: OsbZIP47ΔC-cYFP fusion protein (rice (Oryza sativa)) (UniProt Q5Z6N9)
T2 sequence: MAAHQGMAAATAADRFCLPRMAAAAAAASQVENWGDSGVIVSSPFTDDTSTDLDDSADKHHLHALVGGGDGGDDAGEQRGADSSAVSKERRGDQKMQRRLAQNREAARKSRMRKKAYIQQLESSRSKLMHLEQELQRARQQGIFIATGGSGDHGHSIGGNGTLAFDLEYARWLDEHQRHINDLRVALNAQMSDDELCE

B1: RICE HOMEOBOX1 (OSH1), GAL4 AD fusion (protein, UniProt P46609 1-361)
chain: MEEISHHFGVVGASGVHGGHQHQHHHHPWGSSLSAIVAPPPPPQLQQQQTQAGGMAHTPLTLNTAAAAVGNPVLQLANGSLLDACGKAKEASASASYAADVEAIKAKIISHPHYSSLLAAYLDCQKVGAPPEVAARLTAVAQDLELRQRTALGVLGAATEPELDQFMEAYHEMLVKYREELTRPLQEAMEFLRRVETQLNTLSISGRSLRNILSSGSSEEDQEGSGGETELPEIDAHGVDQELKHHLLKKYSGYLSSLKQELSKKKKKGKLPKDARQQLLNWWELHYKWPYPSESQKVALAESTGLDLKQINNWFINQRKRHWKPSDEMQFVMMDGYHPTNAAAFYMDGHFINDGGLYRLG
B2: RICE FLORICULA/LEAFY (RFL), GAL4 AD fusion (protein, UniProt Q0JAI1 1-389)
chain: MDPNDAFSAAHPFRWDLGPPAPAPVPPPPPPPPPPPPANVPRELEELVAGYGVRMSTVARISELGFTASTLLAMTERELDDMMAALAGLFRWDLLLGERFGLRAALRAERGRLMSLGGRHHGHQSGSTVDGASQEVLSDEHDMAGSGGMGDDDNGRRMVTGKKQAKKGSAARKGKKARRKKVDDLRLDMQEDEMDCCDEDGGGGSESTESSAGGGGGERQREHPFVVTEPGEVARAKKNGLDYLFHLYEQCRLFLLQVQSMAKLHGHKSPTKVTNQVFRYAKKVGASYINKPKMRHYVHCYALHCLDEEASDALRRAYKARGENVGAWRQACYAPLVDISARHGFDIDAVFAAHPRLAIWYVPTRLRQLCHQARSSHAAAAAALPPPLF
B3: OsH15, GAL4 AD fusion (protein, UniProt O80416 1-355)
chain: MDQSFGNLGGGGGAGGSGKAAASSFLQLPLSTAAAATAYYGTPLALHQAAAAAGPSQYHGHGHPHHGGGHHHSKHGGAGGGEISAAEAESIKAKIMAHPQYSALLAAYLDCQKVGAPPEVLERLTATAAKLDARPPGRHDARDPELDQFMEAYCNMLAKYREELTRPIDEAMEFLKRVESQLDTIAGGAHGGGAGSARLLLADGKSECVGSSEDDMDPSGRENEPPEIDPRAEDKELKFQLLKKYSGYLSSLRQEFSKKKKKGKLPKEARQKLLHWWELHYKWPYPSETEKIALAESTGLDQKQINNWFINQRKRHWKPSEDMPFVMMEGFHPQNAAALYMDGPFMADGMYRLGS
B4: OSH1 nYFP (protein, UniProt P46609 1-361)
chain: B1 chain
B5: RFL-nYFP (protein, UniProt Q0JAI1 1-389)
chain: B2 chain
B6: OsMADS2, GAL4 AD fusion (protein, UniProt Q40702 1-209)
chain: MGRGKIEIKRIENSTNRQVTFSKRRSGILKKAREISVLCDAEVGVVIFSSAGKLYDYCSPKTSLSRILEKYQTNSGKILWDEKHKSLSAEIDRIKKENDNMQIELRHLKGEDLNSLQPKELIMIEEALDNGIVNVNDKLMDHWERHVRTDKMLEDENKLLAFKLHQQDIALSGSMRDLELGYHPDRDFAAQMPITFRVQPSHPNLQENN

What was measured:
[1] = biological target: T1, OsbZIP47ΔC (C-terminal truncated OsbZIP47 lacking 186-385 amino acids), Gal4 BD fusion (rice (Oryza sativa)); assay: two-hybrid; Gal4 BD-OsbZIP47ΔC as bait (pGBDUC1), preys fused to GAL4 AD (pGADC1), yeast pJ69-4A; serial dilution spotting on SD/-Leu-Ura-His + 10 mM 3AT, growth after five days at 30°C; ONPG / X-gal quantitative assay
[2] = biological target: T2, OsbZIP47ΔC-cYFP fusion protein (rice (Oryza sativa)); assay: split reporter; BiFC: cYFP and nYFP fusions transiently co-expressed in onion (Allium cepa) epidermal cells by Agrobacterium infiltration; 25°C in dark for 48 h; confocal detection of YFP
[3] = biological target: T1, OsbZIP47ΔC (C-terminal truncated OsbZIP47 lacking 186-385 amino acids), Gal4 BD fusion (rice (Oryza sativa)); assay: two-hybrid; Gal4 BD-OsbZIP47ΔC as bait (pGBDUC1), preys fused to GAL4 AD (pGADC1), yeast pJ69-4A; serial dilution spotting on SD/-Leu-Ura-His + 10 mM 3AT, growth after five days at 30°C; ONPG / X-gal quantitative assay; remark: listed apart in the source

| Molecule | binding [2] | binding [3] | other results |
| --- | --- | --- | --- |
| OsMADS15, GAL4 AD fusion (from UniProt Q6Q9I2 1-267) | – | – | binding [1]: binds weakly |
| OsMADS1-nYFP (from UniProt Q10PZ9 1-257) | binds | – | – |
| B1 | – | binds | – |
| B2 | – | binds | – |
| B3 | – | binds weakly | – |
| B4 | binds | – | – |
| B5 | binds | – | – |
| B6 | – | no binding | – |
